Experimental data as given in the supplement of paper PMC7826260.
The list shows a part of the results. Each Rep nickase domain was tested in vitro on the same pool of single strands (1 h at 37 °C, 3 µM enzyme); the outer parts of the 90-letter strands are left off. Numbers give uncut DNA relative to the enzyme-free pool, as log2; uncut sequences lie near 0, cut ones below; no hit call is given. Counts are relative to all reads; uncut strands gain when others are lost, and binding without cutting may add a little.

Tests used:
Test in all cases: uncleaved DNA left, log2 of reads against the no-enzyme library (log2 ratio); higher = less cleavage (more negative = more Rep cleavage of the k-mer); sequences stand for … in CTCGTCCG…ACCGGAGA
[1] = tested on: T1, Rep nickase domain of Muscovy duck circovirus
T1 sequence (residues 1-111 of Rep, tag left off): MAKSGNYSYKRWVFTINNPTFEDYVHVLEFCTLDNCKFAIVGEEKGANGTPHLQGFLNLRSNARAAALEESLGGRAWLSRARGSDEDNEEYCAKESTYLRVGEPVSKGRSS
Protocol: (§1)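 A pool of 90-nt single-stranded DNAs with seven random bases just before the constant AC of the nick site (name = the seven bases) was cut by 3 µM recombinant His6-SUMO-tagged Rep nickase domain (300 nM DNA, 50 mM HEPES pH 8.0, 50 mM NaCl, 1 mM MnCl2, 1 h, 37 °C, three replicates). Uncut DNA was amplified and sequenced.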

[2] = tested on: T2, Rep nickase domain of banana bunchy top virus
T2 sequence (residues 1-94 of Rep, tag left off): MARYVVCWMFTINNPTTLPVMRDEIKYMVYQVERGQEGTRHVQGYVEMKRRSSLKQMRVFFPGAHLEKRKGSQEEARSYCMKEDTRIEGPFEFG
Protocol: as §1

[3] = tested on: T3, Rep nickase domain of cabbage leaf curl virus
T3 sequence (residues 1-116 of Rep, tag left off): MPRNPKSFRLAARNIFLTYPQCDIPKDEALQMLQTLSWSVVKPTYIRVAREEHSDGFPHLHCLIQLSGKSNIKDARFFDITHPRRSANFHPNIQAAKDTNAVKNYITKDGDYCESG
Protocol: as §1

[4] = tested on: T4, Rep nickase domain of chickpea chlorotic dwarf virus
T4 sequence (residues 1-124 of Rep, tag left off): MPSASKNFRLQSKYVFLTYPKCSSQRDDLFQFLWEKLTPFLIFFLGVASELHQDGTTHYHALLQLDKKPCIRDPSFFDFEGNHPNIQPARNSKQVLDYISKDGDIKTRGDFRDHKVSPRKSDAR
Protocol: as §1

[5] = tested on: T5, Rep nickase domain of faba bean necrotic yellows virus
T5 sequence (residues 1-98 of Rep, tag left off): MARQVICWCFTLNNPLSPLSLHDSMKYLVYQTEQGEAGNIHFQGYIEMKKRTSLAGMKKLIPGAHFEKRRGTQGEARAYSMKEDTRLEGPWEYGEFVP
Protocol: as §1

[6] = tested on: T6, Rep nickase domain of maize striate mosaic virus
T6 sequence (residues 1-117 of Rep, tag left off): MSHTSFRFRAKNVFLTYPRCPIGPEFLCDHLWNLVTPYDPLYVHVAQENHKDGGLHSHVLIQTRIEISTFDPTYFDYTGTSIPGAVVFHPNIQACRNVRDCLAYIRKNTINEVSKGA
Protocol: as §1

[7] = tested on: T7, Rep nickase domain of porcine circovirus 2
T7 sequence (residues 2-116 of Rep, tag left off): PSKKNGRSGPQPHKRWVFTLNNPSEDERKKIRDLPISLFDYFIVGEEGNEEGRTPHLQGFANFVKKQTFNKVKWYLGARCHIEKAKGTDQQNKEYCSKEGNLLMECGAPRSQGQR
Protocol: as §1

[8] = tested on: T8, Rep nickase domain of tomato golden mosaic virus
T8 sequence (residues 1-124 of Rep, tag left off): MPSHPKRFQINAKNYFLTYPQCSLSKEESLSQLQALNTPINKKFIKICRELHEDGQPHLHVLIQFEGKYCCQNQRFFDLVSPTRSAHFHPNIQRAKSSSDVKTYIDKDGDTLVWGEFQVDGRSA
Protocol: as §1

[9] = tested on: T9, Rep nickase domain of tomato yellow leaf curl virus
T9 sequence (residues 1-136 of Rep, tag left off): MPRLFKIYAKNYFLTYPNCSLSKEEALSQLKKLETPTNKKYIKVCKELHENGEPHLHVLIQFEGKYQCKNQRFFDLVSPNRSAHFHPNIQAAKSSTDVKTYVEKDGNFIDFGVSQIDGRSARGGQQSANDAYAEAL
Protocol: as §1

[10] = tested on: T10, Rep nickase domain of wheat dwarf virus
T10 sequence (residues 1-137 of Rep, tag left off): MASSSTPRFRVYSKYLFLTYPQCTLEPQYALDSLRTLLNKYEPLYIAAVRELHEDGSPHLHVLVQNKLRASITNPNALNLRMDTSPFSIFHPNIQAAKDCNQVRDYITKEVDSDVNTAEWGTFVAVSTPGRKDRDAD
Protocol: as §1

Row | Sequence | uncleaved DNA left (log2) [1] | uncleaved DNA left (log2) [2] | uncleaved DNA left (log2) [3] | uncleaved DNA left (log2) [4] | uncleaved DNA left (log2) [5] | uncleaved DNA left (log2) [6] | uncleaved DNA left (log2) [7] | uncleaved DNA left (log2) [8] | uncleaved DNA left (log2) [9] | uncleaved DNA left (log2) [10]
1 | GAGGCGC | -0.00285 | 0.000376 | -0.215 | -0.0392 | 0.0101 | -0.301 | 0.133 | -0.0176 | 0.0125 | -0.00085
2 | GAACCGA | 0.0278 | 0.0434 | 0.137 | -0.072 | 0.0607 | -0.0524 | 0.0396 | 0.0471 | 0.0168 | 0.178
3 | AATCTGT | 0.0499 | -0.0186 | 0.13 | -0.147 | 0.088 | 0.726 | -0.122 | -0.0445 | 0.0597 | 0.127
4 | CTATCAA | 0.0516 | 0.0675 | 0.275 | 0.572 | 0.0206 | -0.157 | 0.108 | -0.00573 | 0.168 | 0.147
5 | ACAGATG | 0.136 | 0.06 | -0.251 | -0.00444 | 0.215 | -0.539 | 0.292 | 0.144 | 0.108 | 0.0256
6 | CGGATTG | -0.00477 | -0.0739 | 0.0249 | 0.55 | 0.14 | 1.09 | 0.194 | 0.147 | -0.0085 | 0.0354
7 | TAAGTCC | 0.046 | -0.0391 | -0.0444 | -2.26 | 0.0226 | 0.0748 | -0.046 | -0.0723 | 0.0498 | -0.302
8 | ACCTAGT | -1.03 | -0.106 | -0.648 | -0.958 | -0.0595 | -1.27 | -3.16 | -0.162 | -0.144 | -0.254
9 | TACGAAA | 0.067 | 0.0443 | 0.0795 | -0.798 | 0.108 | -0.585 | 0.0244 | -0.0105 | -0.0078 | 0.0471
10 | TTAGCGC | 0.0744 | -0.107 | -0.796 | -0.315 | -0.121 | -1.06 | 0.101 | -0.0813 | 0.00816 | -0.0278
11 | AGTTCGC | -0.0474 | -0.0109 | -0.557 | -0.677 | -0.0394 | -1.14 | -0.0549 | -0.0247 | 0.0173 | -0.129
12 | GCAAACC | -0.0213 | -0.0677 | 0.00929 | -0.186 | -0.0627 | -0.283 | -0.324 | -0.0137 | 0.00973 | -0.0561
13 | CCTCATT | -0.223 | -0.0336 | -0.164 | -1.8 | -0.0936 | -0.764 | -0.964 | -0.19 | -0.136 | -0.152
14 | GCCTGAA | -0.11 | -0.154 | 0.00185 | 0.437 | -0.0638 | 0.255 | -0.00206 | 0.00543 | -0.122 | -0.0339
15 | TCGACCG | 0.00213 | -0.0527 | -0.303 | -0.48 | 0.0501 | -0.823 | 0.116 | -0.0502 | 0.0151 | 0.0509
